From article PMC4316160
No constants are given. Whether binding was seen depends on the method and setting. Binding seen in cells or lysates may run through a third protein. Some binding calls cover weakened binding; strength is not graded here. Sequences can lack the tags named with a protein.

Amino acid sequences for entries named in this document (tags omitted). A change or cut given only in a name is not applied to a line headed by its entry.
UniProt P62821: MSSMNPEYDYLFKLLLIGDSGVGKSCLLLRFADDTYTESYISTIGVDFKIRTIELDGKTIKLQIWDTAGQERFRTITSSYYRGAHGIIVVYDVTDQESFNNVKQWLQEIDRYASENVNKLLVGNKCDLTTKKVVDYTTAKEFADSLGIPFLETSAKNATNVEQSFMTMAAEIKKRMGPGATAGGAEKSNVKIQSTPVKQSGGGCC

Molecular target: T1, T7-GST-SKIP-RUN (human) (UniProt Q8IWE5)
T1 sequence: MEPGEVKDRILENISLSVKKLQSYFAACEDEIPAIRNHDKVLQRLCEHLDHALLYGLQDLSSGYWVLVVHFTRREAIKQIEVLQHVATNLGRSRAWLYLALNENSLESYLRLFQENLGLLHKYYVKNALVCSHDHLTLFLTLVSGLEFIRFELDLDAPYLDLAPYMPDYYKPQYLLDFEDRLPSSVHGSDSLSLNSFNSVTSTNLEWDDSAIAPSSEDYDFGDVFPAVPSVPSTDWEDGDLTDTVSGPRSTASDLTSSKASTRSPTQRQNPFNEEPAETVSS
Test: pull-down; glutathione Sepharose 4B beads coupled with T7-GST-SKIP-RUN (affinity-purified from COS-7) incubated 3 hours at 4°C with COS-7 cell lysates containing FLAG-Rab1A(Q70L) and/or an increasing amount of FLAG-Arl8b(Q75L); immunoblotting, band intensity by ImageJ; only the target purified

- binding: binds
Substance: FLAG-Rab1A(Q70L) (from UniProt P62821 1-205)
